Reference: PubChem BioAssay AID686978 (National Center for Advancing Translational Sciences (NCATS), 2013)
The campaign covered roughly 420,000 compounds. About 64,000 (15%) were called active. This list was built around the results that the source calls inconclusive (neither active nor inactive); the mix of calls is not that of the screen. The call rests on the fitted dose curve; in most records, active means well fitted inhibition curve with a large enough effect; inconclusive means small, poorly fitted or top-dose-only effect; inactive means flat fitted curve, though single readings scatter. No potency is given beside an inconclusive call; the fits are too rough.

test: qHTS for Inhibitors of human tyrosyl-DNA phosphodiesterase 1 (TDP1): qHTS in cells in absence of CPT; conditions: DT40 Tdp1-/- hTDP1 cells, no CPT, ATP luminescence, 48 h; activity change, negative = growth inhibition: at 46.2 µM (top of the series) unless noted; further: nearly all actives have a fitted effect of over 55% in size
In short: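 Luminescent ATP content (CellTiter-Glo) served as the growth readout. Knockout chicken DT40 cells expressing human TDP1 were exposed to compounds without camptothecin for a minimum 48 hr at 37 °C.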
On the % scale 0 is the no-effect control and ±100 the full control effect; potency means the concentration at half of the fitted maximal effect; tags describe the fitted curve by direction and shape.

Q: Which Potency does the source give for CCN(C(=O)/C=C/c1ccc2c(c1)OCO2)c1ccccc1 here?
A: inconclusive [inhibitor, partial curve]

Q: Which Potency does the source give for CCCNC(=O)C1(CC2CC(c3ccccc3)=NO2)CCN(C(=O)c2ccccc2)CC1 (stereo not given) here?
A: inactive

Q: For N#Cc1ccc(CSc2nnc(-c3ccncc3)n2CCc2ccccc2)cc1, which Potency is on record?
A: inconclusive [inhibitor, partial curve, poor fit]

Q: With Cc1cc(C)c2c(=O)[nH]c(SCC(=O)c3ccc(F)c(C)c3)nc2n1 as the molecule, how does the Potency read?
A: inactive

Q: With COc1ccccc1N(C)S(=O)(=O)c1ccc(Cl)c(C(=O)Nc2ccccc2N2CCOCC2)c1 as the molecule, how does the Potency read?
A: active: 1.46 µM

Q: With Fc1ccccc1C(c1nnnn1C1CCCC1)N1CCN(Cc2ccccc2)CC1 (stereo not given) as the molecule, how does the Potency read?
A: active: 11.6 µM

Q: With COc1cc2c(cc1OC)CN(C(=O)Cc1c(F)cccc1Cl)CC2 as the molecule, how does the Potency read?
A: inconclusive [inhibitor, single point]

Q: With Cc1ccc(NS(=O)(=O)c2cccc(C(=O)N3CCCCC3)c2)cc1 as the molecule, how does the Potency read?
A: inconclusive [inhibitor, single point]

Q: With Cc1ccc(NC(=O)C2CCCN(c3ncnc4c3nc3n4CCCCC3)C2)cc1F (stereo not given) as the molecule, how does the Potency read?
A: active: 23.1 µM

Q: Which Potency does the source give for CCCCN1CC(COCc2ccccc2)OCCS1(=O)=O (stereo not given) here?
A: inactive

Q: Which Potency does the source give for CC(=O)c1c(C)[nH]c(C(=O)OCC(=O)NC(C)c2ccccc2)c1C (stereo not given) here?
A: inconclusive [inhibitor, single point]

Q: With Cc1nc2sccn2c1-c1nc(-c2cc3ccccc3o2)cs1 as the molecule, how does the Potency read?
A: inconclusive [inhibitor, single point]

Q: For COc1ccccc1C(=O)CN1C(=O)NC2(CCCCCC2)C1=O, which Potency is on record?
A: inactive

Q: With CCN(c1ccccc1)S(=O)(=O)c1cccc(C(=O)NCC2(N(C)C)CCCCC2)c1 as the molecule, how does the Potency read?
A: inconclusive [inhibitor, single point]

Q: For N#CC(C(=O)NC1CC1)c1nc2ccccc2nc1N1CCCC1 (stereo not given), which Potency is on record?
A: inconclusive [inhibitor, partial curve]

Q: For Cc1nc2cccnc2n1-c1cccc(C(=O)NCc2ccc(OC(C)C)cc2)c1, which Potency is on record?
A: inconclusive [inhibitor, single point]

Q: With CC(C)(O)CN(C(=O)c1ccccc1)C1CCCCC1 as the molecule, how does the Potency read?
A: inactive

Q: For O=C(O)CC(NS(=O)(=O)c1ccc(Cl)s1)c1ccccc1 (stereo not given), which Potency is on record?
A: inactive

Q: With CC(C)CN(C(=O)CSc1nnc(-c2cccs2)n1C1CC1)C1CCS(=O)(=O)C1 (stereo not given) as the molecule, how does the Potency read?
A: inactive

Q: With COc1ccccc1C(CC(=O)N1CCCC1)c1ccc2c(c1)OCO2 (stereo not given) as the molecule, how does the Potency read?
A: inconclusive [inhibitor, single point]

Q: For Cc1ccc(N2CCN(C(=O)c3cc(COc4c(C)cccc4C)on3)CC2)c(C)c1, which Potency is on record?
A: inconclusive [inhibitor, single point]

Q: For COc1ccc2[nH]cc(CCNc3ncncc3-c3c(C)noc3C)c2c1, which Potency is on record?
A: inconclusive [inhibitor, single point]

Q: Which activity change, negative = growth inhibition does the source give for O=S(=O)(NCc1cc(-c2ccc(Cl)cc2)no1)c1ccccc1 here?
A: inconclusive: -30.4% [inhibitor]

Q: For CN(C(=O)c1cccc(NC(=O)Cc2ccc(NC(=O)C3CCCN(C(=O)c4ccccc4)C3)cc2)c1)C1CCC1 (stereo not given), which Potency is on record?
A: inconclusive [inhibitor, single point]

Q: Which Potency does the source give for CC(=O)c1ccc(N2C(=O)CC(N3CCN(S(=O)(=O)c4ccc(C)c(C)c4)CC3)C2=O)cc1 (stereo not given) here?
A: inactive

Q: For COc1cccc(/C=N/NC(=O)c2cc(C34CC5CC(CC(C5)C3)C4)[nH]n2)c1, which Potency is on record?
A: inconclusive [inhibitor, single point]

Q: With Cc1cccc(C)c1NC(=O)C(c1ccc(C(F)(F)F)cc1)n1c(=O)c(-c2ccccc2)nc2ccccc21 (stereo not given) as the molecule, how does the Potency read?
A: inconclusive [inhibitor, single point]

Q: For O=C(COc1ccccc1)Nc1nc2cc3c(cc2s1)OCCO3, which Potency is on record?
A: inactive

Q: With C/C(=N\NC(=O)c1c([N+](=O)[O-])c(C)nn1C)c1ccc(NC(=O)c2ccc(C)o2)cc1 as the molecule, how does the Potency read?
A: inactive

Q: With Cc1cc(=O)n2[nH]c(SCc3c(F)cccc3Cl)nc2n1 as the molecule, how does the Potency read?
A: inconclusive [inhibitor, single point]

Q: With O=c1[nH]c(=S)[nH]c2c1C(c1cccc(C(F)(F)F)c1)OC(CCc1ccccc1)C2 (stereo not given) as the molecule, how does the Potency read?
A: inconclusive [inhibitor, single point]

Q: For COc1ccc(Nc2c(-c3ccc(Cl)cc3)nc3cnccn23)cc1OC, which Potency is on record?
A: inconclusive [inhibitor, single point]

Q: With CC1CCCC(NS(=O)(=O)c2cccc3nsnc23)C1C (stereo not given) as the molecule, how does the Potency read?
A: inconclusive [inhibitor, single point]

Q: Which Potency does the source give for COc1cc(CCC(=O)Nc2ccncc2Cl)cc(OC)c1OC here?
A: inactive

Q: With O=C(NCc1ccc(Cl)c(Cl)c1)c1cccnc1 as the molecule, how does the Potency read?
A: inactive

Q: With COc1cc(Cn2c(N)c(C#N)c3nc4ccccc4nc32)cc(OC)c1 as the molecule, how does the Potency read?
A: inconclusive [inhibitor, partial curve, poor fit]

Q: For O=[N+]([O-])c1cc(C(F)(F)F)ccc1N1CCN(S(=O)(=O)c2ccc3ccccc3c2)CC1, which Potency is on record?
A: inconclusive [inhibitor, single point]

Q: Which Potency does the source give for CCCOC(=O)c1ccccc1O here?
A: inactive

Q: For O=C(Nc1ccc(Cl)cc1)C1CCCN(c2ncnc3c2nc2n3CCCCC2)C1 (stereo not given), which Potency is on record?
A: active: 18.4 µM

Q: With O=C(O)c1cccnc1C(=O)N1CCc2c([nH]c3ccccc23)C1C(F)(F)F (stereo not given) as the molecule, how does the Potency read?
A: inactive

Q: Which Potency does the source give for CCCS(=O)(=O)c1c(S(=O)(=O)CCC)c2cc(CC)ccn2c1C(=O)c1ccc(OC)cc1 here?
A: inconclusive [inhibitor, partial curve, poor fit]

Q: With O=C(N/N=C\c1c(O)ccc2ccccc12)c1ccc(Cn2cccn2)o1 as the molecule, how does the Potency read?
A: active: 5.8 µM

Q: For CC(Oc1ccc(Br)cc1)C(=O)NCC1(N2CCCCC2)CCCCC1 (stereo not given), which Potency is on record?
A: inactive

Q: Which Potency does the source give for O=C(NCCCN1CCN(c2cccc(Cl)c2)CC1)C1CCC(=O)N1Cc1ccccc1Cl (stereo not given) here?
A: inconclusive [inhibitor, single point]

Q: With CCN(Cc1cc2cc(OC)ccc2[nH]c1=O)C(=O)Cc1ccc(OC)cc1 as the molecule, how does the Potency read?
A: inconclusive [inhibitor, single point]

Q: With COc1ccc(CCNC(=O)c2cnc3ccc(C)cn3c2=O)cc1 as the molecule, how does the Potency read?
A: inactive

Q: For O=C1CC(=O)N2N=C(c3ccc([N+](=O)[O-])cc3)SC2=N1, which Potency is on record?
A: inconclusive [inhibitor, single point]

Q: Which Potency does the source give for COC(=O)CCC(C)C1CCC2C3C(C[C@H](O)C12C)C1(C)CC[C@@H](O)CC1C[C@H]3O (stereo not given in full) here?
A: inconclusive [inhibitor, partial curve, poor fit]

Q: Which Potency does the source give for COc1cccc(Cn2c(Oc3ccccc3)nc3c2c(=O)n(C)c(=O)n3C)c1 here?
A: inconclusive [inhibitor, single point]

Q: Which Potency does the source give for COc1ccc(CCn2c(N3CCN(C)CC3)nc3c2c(=O)[nH]c(=O)n3C)cc1 here?
A: inactive

Q: Which Potency does the source give for COc1cc(NC(=O)c2ccccc2)c(OC)cc1NC(=O)CN1C(=O)N(C)C2(CCCCC2)C1=O here?
A: inactive

Q: Which Potency does the source give for CSc1ccc(CN2CCC2(C)C(=O)Nc2ccc(C)c(O)c2)cc1 (stereo not given) here?
A: active: 18.4 µM

Q: Which Potency does the source give for Cn1c2ccccc2c2ncn(CCCN3CCOCC3)c(=O)c21 here?
A: inactive

Q: With C=CCn1c(=S)[nH]c2ccc(Br)cc2c1=O as the molecule, how does the Potency read?
A: inconclusive [inhibitor, single point]

Q: With Cc1ccc2nc3c(cc(C(=O)NCCc4ccccc4)c(=N)n3CC3CCCO3)c(=O)n2c1 (stereo not given) as the molecule, how does the Potency read?
A: active: 20.6 µM

Q: Which Potency does the source give for CC1CCN(C(=O)CSCc2ccc(Cl)cc2)CC1 here?
A: inconclusive [inhibitor, partial curve]

Q: For CC(C)(C)OC(=O)N[C@@H](C(=O)OC(C)(C)C)c1ccc2c(c1)OCO2, which Potency is on record?
A: inconclusive [inhibitor, single point]

Q: For COC(=O)CSc1ncnc2c1sc1nc(N3CCOCC3)c3c(c12)CCCC3, which Potency is on record?
A: inactive

Q: Which Potency does the source give for CC(C)CS(=O)(=O)c1oc(-c2ccc(F)cc2)nc1S(=O)(=O)c1ccccc1 here?
A: active: 0.461 µM

Q: Which Potency does the source give for COc1ccc(C(C)(NC(C)=O)c2nc(-c3cccc(C(F)(F)F)c3)cs2)cc1 (stereo not given) here?
A: inconclusive [inhibitor, single point]

Q: Which Potency does the source give for COC(=O)c1cc(-c2ccc(S(=O)(=O)N3CCCC(C)C3)cc2)c(C(F)(F)F)s1 (stereo not given) here?
A: inconclusive [inhibitor, single point]

Q: Which activity change, negative = growth inhibition does the source give for CC(C)COc1ccc(N)cc1OCC(C)C here?
A: inconclusive: -36.9% [inhibitor]

Q: For CC(=O)OC1CC2C(C)(C)C(=O)[C@@H]3OC3[C@@]2(C)C2CC[C@]3(C)C(=CC(=O)OC3c3ccoc3)[C@]12C (stereo not given in full), which Potency is on record?
A: inactive

Q: With COCCCNC(=S)N/N=C/c1ccccc1O as the molecule, how does the Potency read?
A: active: 0.58 µM

Q: Which Potency does the source give for COc1ccc(OC)c(C(c2nnnn2C(C)(C)C)N2CCc3ccccc3C2)c1 (stereo not given) here?
A: active: 13 µM

Q: For COc1cccc(C(C(=O)NC(C)(C)C)N(Cc2ccc(C)cc2)C(=O)CCC(=O)Nc2cc(C)on2)c1OC (stereo not given), which Potency is on record?
A: inconclusive [inhibitor, partial curve, poor fit]

Q: Which Potency does the source give for O=C(NC1CC(=O)N(c2cccc(F)c2)C1)c1ccc(S(=O)(=O)N2CCCC2)cc1 (stereo not given) here?
A: inconclusive [inhibitor, single point]

Q: For O=C(CCc1nc(-c2cccs2)no1)Nc1ccccc1[N+](=O)[O-], which Potency is on record?
A: inconclusive [inhibitor, single point]

Q: With COc1ccc(N2CCN(C(=O)COC(=O)CCOc3ccc(C(C)(C)C)cc3)CC2)cc1 as the molecule, how does the Potency read?
A: inconclusive [inhibitor, partial curve]

Q: Which Potency does the source give for CCOc1ccccc1CNC(=O)Cn1c(-c2ccccc2)cc(C(C)=O)c1C here?
A: inconclusive [inhibitor, single point]
